Results published in the supplement of paper PMC7826260.
Some of the results follow. The data describe in vitro nicking of single-stranded DNA by Rep domains (3 µM enzyme, 1 h, 37 °C); shown is the middle of each 90-letter strand. Values are log2 of uncut reads against the no-enzyme pool; strong cutting gives strongly negative numbers. There is no active / inactive call. Because reads are shares of a total, they shift together, so uncut sequences can rise above 0 when many others are cut.

Assays:
Assay in all cases: uncleaved DNA left, log2 of reads against the no-enzyme library (log2 ratio); higher = less cleavage (more negative = more Rep cleavage of the k-mer); sequences stand for … in CTCGTCCG…ACCGGAGA
[1] = system: T1, Rep nickase domain of Muscovy duck circovirus
T1 sequence (protein, residues 1-111, tag omitted): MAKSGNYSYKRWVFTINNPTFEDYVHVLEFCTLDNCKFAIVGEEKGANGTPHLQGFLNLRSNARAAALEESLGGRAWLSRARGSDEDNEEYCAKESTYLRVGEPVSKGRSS
Procedure: (§1)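 A pool of 90-nt single-stranded DNAs with seven random bases just before the constant AC of the nick site (name = the seven bases) was cut by 3 µM recombinant His6-SUMO-tagged Rep nickase domain (300 nM DNA, 50 mM HEPES pH 8.0, 50 mM NaCl, 1 mM MnCl2, 1 h, 37 °C, three replicates). Uncut DNA was amplified and sequenced.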

[2] = system: T2, Rep nickase domain of banana bunchy top virus
T2 sequence (protein, residues 1-94, tag omitted): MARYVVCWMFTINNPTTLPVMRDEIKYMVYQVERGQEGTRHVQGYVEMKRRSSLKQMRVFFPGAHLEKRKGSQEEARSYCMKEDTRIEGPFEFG
Procedure: as §1

[3] = system: T3, Rep nickase domain of cabbage leaf curl virus
T3 sequence (protein, residues 1-116, tag omitted): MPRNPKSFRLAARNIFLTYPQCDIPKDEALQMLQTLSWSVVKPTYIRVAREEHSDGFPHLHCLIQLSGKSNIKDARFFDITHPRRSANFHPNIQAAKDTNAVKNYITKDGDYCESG
Procedure: as §1

[4] = system: T4, Rep nickase domain of chickpea chlorotic dwarf virus
T4 sequence (protein, residues 1-124, tag omitted): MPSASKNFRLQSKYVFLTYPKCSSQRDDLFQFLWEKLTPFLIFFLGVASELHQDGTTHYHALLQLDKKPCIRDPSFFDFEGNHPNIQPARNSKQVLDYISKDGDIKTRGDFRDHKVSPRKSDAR
Procedure: as §1

[5] = system: T5, Rep nickase domain of faba bean necrotic yellows virus
T5 sequence (protein, residues 1-98, tag omitted): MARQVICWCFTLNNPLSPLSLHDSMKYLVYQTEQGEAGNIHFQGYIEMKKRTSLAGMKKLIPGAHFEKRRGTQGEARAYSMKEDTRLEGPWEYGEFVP
Procedure: as §1

[6] = system: T6, Rep nickase domain of maize striate mosaic virus
T6 sequence (protein, residues 1-117, tag omitted): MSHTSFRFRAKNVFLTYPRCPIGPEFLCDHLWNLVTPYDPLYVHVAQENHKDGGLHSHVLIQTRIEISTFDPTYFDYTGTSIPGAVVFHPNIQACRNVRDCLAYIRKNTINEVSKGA
Procedure: as §1

[7] = system: T7, Rep nickase domain of porcine circovirus 2
T7 sequence (protein, residues 2-116, tag omitted): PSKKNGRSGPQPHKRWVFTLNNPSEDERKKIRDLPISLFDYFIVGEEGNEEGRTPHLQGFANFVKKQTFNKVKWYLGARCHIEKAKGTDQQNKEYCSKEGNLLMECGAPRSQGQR
Procedure: as §1

[8] = system: T8, Rep nickase domain of tomato golden mosaic virus
T8 sequence (protein, residues 1-124, tag omitted): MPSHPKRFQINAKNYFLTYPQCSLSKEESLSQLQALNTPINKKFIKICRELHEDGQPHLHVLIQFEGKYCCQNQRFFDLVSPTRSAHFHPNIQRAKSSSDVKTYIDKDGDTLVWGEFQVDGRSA
Procedure: as §1

[9] = system: T9, Rep nickase domain of tomato yellow leaf curl virus
T9 sequence (protein, residues 1-136, tag omitted): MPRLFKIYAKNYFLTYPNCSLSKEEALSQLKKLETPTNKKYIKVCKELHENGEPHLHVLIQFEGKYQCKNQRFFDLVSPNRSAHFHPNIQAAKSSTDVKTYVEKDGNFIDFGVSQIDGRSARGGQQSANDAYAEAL
Procedure: as §1

[10] = system: T10, Rep nickase domain of wheat dwarf virus
T10 sequence (protein, residues 1-137, tag omitted): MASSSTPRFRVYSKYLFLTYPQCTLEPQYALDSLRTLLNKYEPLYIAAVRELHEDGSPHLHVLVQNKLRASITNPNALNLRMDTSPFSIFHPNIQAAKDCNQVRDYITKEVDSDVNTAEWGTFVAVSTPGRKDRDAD
Procedure: as §1

Sequence	uncleaved DNA left (log2) [1]	uncleaved DNA left (log2) [2]	uncleaved DNA left (log2) [3]	uncleaved DNA left (log2) [4]	uncleaved DNA left (log2) [5]	uncleaved DNA left (log2) [6]	uncleaved DNA left (log2) [7]	uncleaved DNA left (log2) [8]	uncleaved DNA left (log2) [9]	uncleaved DNA left (log2) [10]
CCCCTAG	-0.157	-0.128	-0.792	-0.695	-0.0322	-1.14	0.0163	-0.183	0.000607	-0.221
ACCGGCT	-0.0867	-0.121	-0.289	-0.591	-0.195	-0.721	-0.00591	-0.121	-0.0712	-0.0791
ATGGTCT	-0.00944	-0.0678	-0.0373	-0.742	-0.0715	0.416	-0.115	-0.0178	-0.138	-0.087
TGTTATG	0.0202	0.0201	-0.237	-0.523	0.00362	-0.953	0.117	-0.0229	0.0277	-0.0437
GTACCTA	-0.0255	0.104	0.169	0.713	-0.056	1.47	-0.147	0.0746	0.042	0.0752
TCCCCGT	-0.18	-0.11	-0.141	-0.72	-0.122	-0.708	-0.121	-0.178	-0.113	-0.0507
TGATAGT	-3.32	-0.122	-0.294	-1.59	0.0119	-0.77	-3.38	-0.0119	-0.0453	-0.268
GTGCCGA	-0.0389	0.0527	0.103	0.502	-0.137	0.202	0.0701	-0.151	-0.0364	-0.0015
ATACCTT	0.0209	0.0664	-0.0902	-2.1	0.131	-0.0271	-0.509	0.0355	0.0396	0.108
CCGCTTG	0.127	-0.0155	-0.0784	-0.296	0.175	-0.297	0.423	0.163	0.258	-0.0358
AAAGGTT	0.184	0.106	0.216	1.53	0.0635	1.81	0.149	0.164	-0.015	0.13
AGGTGGG	0.152	0.116	-0.414	-0.458	0.0648	-0.881	0.219	0.183	0.0336	-0.0476
CCTCAAC	-0.0757	-0.18	-0.183	-1.56	0.0248	-0.751	-0.00775	-0.00217	-0.0174	-0.152
GATTGTG	-0.0541	-0.0751	-0.558	0.727	0.133	-0.256	0.166	0.0463	0.17	-0.0414
CATTTCA	-1.12	-1.58	-0.281	-1.97	0.0812	-0.954	-1.43	-0.0181	0.135	0.0555
GCGAGAC	-0.00881	0.0188	0.719	1.58	0.0258	1.8	0.124	0.0267	0.108	0.123

Sequence	uncleaved DNA left (log2) [1]	uncleaved DNA left (log2) [2]	uncleaved DNA left (log2) [3]	uncleaved DNA left (log2) [4]	uncleaved DNA left (log2) [5]	uncleaved DNA left (log2) [6]	uncleaved DNA left (log2) [7]	uncleaved DNA left (log2) [8]	uncleaved DNA left (log2) [9]	uncleaved DNA left (log2) [10]
CGTGACT	-0.00771	0.0209	0.186	0.492	0.064	1.5	-0.117	-0.0335	0.103	0.117
GGGCTCT	0.174	0.139	0.803	1.79	0.119	2.17	0.223	0.1	0.188	0.182
CGATCAA	-0.106	0.0025	0.439	0.815	-0.135	0.792	-0.101	-0.0528	-0.102	0.00871
CCGTTGT	-0.056	-0.0916	-0.205	-0.729	-0.113	-0.787	-0.979	-0.0322	-0.0159	-0.0795
CTTCCAA	0.0403	0.0197	0.0818	-0.351	0.0505	-0.534	-0.176	-0.075	0.0774	0.0806
AATCCCG	-0.0654	0.0086	-0.766	-0.0862	0.108	-1.12	-0.542	-0.0442	0.0627	0.0626
AAAGGGT	0.0575	0.0727	0.288	1.73	0.117	1.96	0.232	0.216	0.00488	0.0638
GAACATT	-0.0447	0.165	0.741	1.6	-0.0412	2.1	0.0623	-0.174	0.0784	0.242
AGTCCCG	-0.162	-0.0783	-0.449	0.118	0.0893	-0.654	-0.353	-0.0149	-0.0246	-0.0262
GACTGGC	-0.118	-0.147	-0.0612	0.278	-0.0863	-0.0082	-0.0238	-0.103	-0.101	-0.0374
AGAGGCG	0.0422	0.0122	-0.717	-0.107	0.125	-0.588	0.213	0.0515	0.0527	-0.0149
TCACCAT	-0.0442	-0.0297	-0.0482	-1.29	-0.0751	-0.348	-0.384	-0.239	0.0785	-0.0137
TAATCGG	0.00196	-0.00389	0.248	1.29	-0.0564	1.84	0.0515	0.0602	-0.11	0.00771
GGGTCTT	-0.0916	0.115	0.792	1.91	0.0436	2.24	-0.423	-0.142	0.0874	0.126
GGGGTAT	0.11	0.15	0.975	2.1	0.16	2.39	0.282	0.108	0.135	0.205
